The supplement of paper PMC11417369
± gives the standard deviation of the averaged measurements. The list shows a part of the results.

System: PfAP2-I AP2 domain 3 (GST-tagged)
Assay: gcPBM binding intensity (ln(normalized median fluorescence intensity)); higher = stronger DNA binding
In short: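 After 1 h on an Agilent 4 × 180k array of primer-extended double-stranded 36-bp intergenic genomic probes and negative controls, bound GST-tagged P. falciparum DNA-binding domains were detected with Alexa488 anti-GST antibody and scanned at 488 nm. The domains had been expressed in E. coli, and binding took place in 1× PBS with 1% milk, 0.2 mg/ml BSA, 0.5% salmon testes DNA and 0.03% Triton X-100. Binding intensity is the highest Masliner-normalised natural-log median intensity across replicate spots of either probe orientation.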

Sequence | gcPBM binding intensity (ln)
AAAAAAATACATACGTGTACCCACATATATGTATCT [XGTACX_site5319] | 7.96 ± 0.69
GTTTCTACTTATATAACAGGACACGTGTGAATAATT [TGCATGCA_negctrl_site430] | 8.11 ± 0.71
AAAAAAAAAAAACATTGTACGCACATTTTATATGTC [XGTACX_site6974] | 8.39 ± 0.28
TTGAAGGTGGCAATGTGTACATAGAATAACCAGTGC [XGTACX_site4738] | 8.17 ± 0.54
ACAATTGCATCTATCACACATACATACATACATACA [CACACA_site5063] | 8.91 ± 0.37
TTACTATAAAATGTCACACATTCTGTTTCCTTACTT [CACACA_site5714] | 7.64 ± 0.61
TCAACAAAATTGAAGGAACACACATACATATATATA [CACACA_site7940] | 8.14 ± 1
TATAAATATCTGTATGCACACATTTTTTTTGGAAAA [CACACA_site4734] | 8.88 ± 0.23
ATTTTTTCTCATAAAAACGTGAACGTTTATTTTACA [CACACA_negctrl_site1041] | 7.93 ± 0.59
ATTATAAAAGAATTTTTTTTTATTTCATTAAAATAT [CACACA_negctrl_site1137] | 7.09 ± 0.47
AGCACATAAATAATTAAACACACATTGTTCTAGACA [CACACA_site8746] | 7.64 ± 0.59
TTATAATTTTTCTATTGTACATTTAATAATATATAT [XGTACX_site7326] | 7.8 ± 0.48
TTATACATATTTATATGTACGTAATATAATATTAAT [XGTACX_site6520] | 7.79 ± 0.3
TATTTAATTTATACACGTACATATATAAATAATACA [XGTACX_site1148] | 7.99 ± 0.18
ATGAAGAAATAAATGTGTACATATCTTAGTATCATA [XGTACX_site8658] | 7.75 ± 0.5
TCATGGGTGTATTTCACACACGGATAATCATTTATA [CACACA_site4663] | 7.55 ± 0.45
TATAATGATGATGATAGTACGTATTAGTATAAAAAA [XGTACX_site9] | 8.06 ± 0.61
ATATTTTTTTTTGTTACACACGTTTTTTAAAAAATG [CACACA_site1603] | 8.39 ± 0.69
TCATAAAAATAAAAATGTACACATTAGAAATATTGT [XGTACX_site3671] | 7.83 ± 0.35
AGAAATAAAAAAAAAAATATATATATTATATATATA [CACACA_negctrl_site1799] | 8.76 ± 0.12
AAAATATATTAAGGCACACACATACATATTTATATA [CACACA_site7707] | 10.1 ± 0.54
AGATCAATAATGACAAGTACACAAAATAACATTTAA [XGTACX_site6968] | 7.69 ± 0.3

Sequence | gcPBM binding intensity (ln)
ACAAAAAAAAAAAAAAAAAAAAAAAAAAAATAATAA [CACACA_negctrl_site1640] | 7.42 ± 0.39
ATTTTGTAAAAGGTCATACACACATATTCAAAAGAA [CACACA_site2946] | 7.68 ± 0.62
AATATATATTAAATATGTACTTATTTTTTGGTTGCT [XGTACX_site3613] | 7.86 ± 0.24
CGCACCCACAGACACACACACACATATATATATATA [CACACA_site2202] | 9.275 ± 0.092
TACATACAGAAACACACACACACATATATATATATA [CACACA_site2919] | 9.45 ± 0.35
AAAGAATAATTAAATACACACATATTACAGTAAAAA [CACACA_site2450] | 7.86 ± 0.65
TTATATATGACTAACGGTTTTTTTTTTTTTTTTTTT [CACACA_negctrl_site576] | 9.38 ± 0.33
TTATTATATAAAGTTTCACACATTATTTGTTCAAAC [CACACA_site5218] | 7.53 ± 0.71
ATATGAAGTATCGAATTAAGGGCAACAAATAAATTA [CACACA_negctrl_site1116] | 7.93 ± 0.57
AATATAAGCAAATACACACACACATATAAATATGTA [CACACA_site7741] | 7.66 ± 0.47
TACATATATAAATATGTACACACATATGTATGATCT [CACACA_site9284] | 7.64 ± 0.4
TAATATCAATTTTTATGTACTTATATATATATATAT [XGTACX_site5879] | 9.27 ± 0.34
AGTAGTCTGGAGAAGAGTACACAGTATCTGGTAACA [XGTACX_site2032] | 7.65 ± 0.48
ATTGAGAGAAAAAAATGTACTTGATCAAAATGGATA [XGTACX_site1649] | 7.75 ± 0.64
AAAAATCATATAGGTTGTACGGGTAGTTTATTTTAT [XGTACX_site6936] | 7.87 ± 0.69
GTGTATATATGTTATACACACAAAAATATTTTGTAT [CACACA_site265] | 7.81 ± 0.52
TATATATATTTTATGTGTACTCAATGTTATAACGCA [XGTACX_site8360] | 8.41 ± 0.42
AATAGAGTTGAATGCACACATACAAATTTTTAGTTT [CACACA_site3564] | 9.56 ± 0.24
TGCATAATTAAAAATGGTACACTGTATTTATAATAT [XGTACX_site1575] | 7.95 ± 0.61
TATAAATTAAGATAACGTACATATAATAATATAAAC [XGTACX_site487] | 7.8 ± 0.59
TGTACAGTATATACAACACACATTTGTATAAATATA [CACACA_site1002] | 7.67 ± 0.35
